Hit rate of the full screen: of about 410,000 compounds, about 7,200 (1.8%) were called active. The shares of active, inactive and inconclusive entries below differ from those in the screen. Calls follow the shape of the dose curve; as a rule, active = well fitted activation curve with a large enough effect; inconclusive = small, poorly fitted or top-dose-only effect, or another doubt; inactive = no such curve, though single readings can be large or run the other way. No potency is given beside an inconclusive call; the fits are too rough.
Test: qHTS of TDP-43 Inhibitors; also: nearly all actives have a fitted effect of over 50% in size; as to growth rescue (activation): % of control where 0% means no effect
Conditions: TDP-43 expressing yeast growth rescue, BacTiter-Glo, 24 h; growth rescue (activation): at 46.1 µM (top of the series) unless noted
In short: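 Readout is BacTiter-Glo luminescence of cell growth, so inhibitors register as activators. TDP-43-expressing yeast at OD600=0.02 in galactose medium, after raffinose pregrowth to mid-log, were incubated with compound for 24 hr at 30 deg C.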
Potency is read from the fitted curve at half-maximal effect; tags tell the direction and shape of the fitted curve.

| SMILES | Potency | growth rescue (activation) |
| --- | --- | --- |
| Cc1ccc(Cl)cc1N1CCN(C(=O)Cn2ncc3c4ccccc4n(C)c3c2=O)CC1 | inconclusive [activator, single point] |  |
| OC[C@@H](O)[C@H](O)C(/C=N/Nc1ccccc1)=N\Nc1ccccc1 | inconclusive [activator, partial curve] |  |
| C#CCSc1nnnn1-c1ccc(OCC)cc1 | inconclusive [activator, single point] |  |
| Cc1cc2nc(-c3ccccc3)c(Cc3cccc(F)c3)n2c(C)c1Br | inconclusive [activator, partial curve] |  |
| Cc1coc2c1C(=O)C(=O)c1c-2ccc2c(C)cccc12 | inconclusive [activator, partial curve] |  |
| COc1ccccc1CN1CCN(Cc2nc(-c3ccc(C)cc3)oc2C)CC1 | inconclusive [activator, partial curve] |  |
| CCCSc1nc2c([nH]c3ccccc32)c(=O)n1C | inactive |  |
| COc1cc(/C=C/C(=O)OCC(=O)NCCC2=CCCCC2)cc(OC)c1OC | active: 35.5 µM |  |
| COc1ccccc1CNC(=O)CSC1=Nc2ccccc2N=C(c2ccc(F)cc2)C1 | inactive |  |
| COc1ccc(S(=O)(=O)NC2CC3CCC2C3)cc1Br (stereo not drawn) | inconclusive [activator, partial curve, poor fit] |  |
| COc1ccccc1OC(C)C(=O)Nc1cccc(-c2nc3ccccc3o2)c1 (stereo not drawn) | inconclusive [activator, partial curve] |  |
| COc1cc(OC)c(NC(=O)Cn2cnc3sc(C)c(S(=O)(=O)N4CCOCC4)c3c2=O)cc1Cl | inactive |  |
| Cc1cc(C)n2c(=S)[nH]nc2n1 | inconclusive [activator, partial curve] |  |
| COc1ccccc1N1CCN(C2CCCN(C(=O)c3ccoc3)C2)CC1 (stereo not drawn) | inactive |  |
| O=C1CC(SCc2nc3ccccc3[nH]2)C(=O)N1c1ccc(Cl)cc1 (stereo not drawn) | inactive |  |
| Cc1ccc(NC(=O)c2cnn3c2NC(c2ccccc2)=CC3c2ccccc2)cc1 (stereo not drawn) | inconclusive [activator, partial curve, poor fit] |  |
| COc1ccc(-n2c(=O)[nH]c3cc(C(=O)NCCc4ccccc4)ccc3c2=O)cc1OC | inconclusive [activator, partial curve] |  |
| Cc1ccc(SC(C)c2nc(-c3cccnc3)no2)cc1 (stereo not drawn) | inconclusive [activator, partial curve] |  |
| CC(C)Oc1cc(O)c2c(=O)c(-c3ccc(O)cc3)coc2c1 | inconclusive [activator, single point] |  |
| COC(=O)c1ccccc1S(=O)(=O)N1CCC(C(=O)OCc2ccc([N+](=O)[O-])cc2)CC1 | inconclusive [activator, partial curve] |  |
| CC(=O)c1cccc(OCC(=O)Nc2ccccc2N2CCOCC2)c1 | active: 22.4 µM |  |
| c1ccc2c(c1)OCC(c1csc3ncnc(N4CCCCC4)c13)O2 (stereo not drawn) | inactive |  |
| CC1Cc2nc(SCC(=O)N3CCOCC3)n(-c3ccccc3)c(=O)c2S1 (stereo not drawn) | inactive |  |
| Cc1cc(C)c(NC(=O)COC(=O)C2CCC2)c(Cl)c1 | inactive |  |
| O=C1C2C3C=CC(C4CC34)C2C(=O)N1c1cccc2ccccc12 (stereo not drawn) | inconclusive [activator, single point] |  |

| SMILES | Potency | growth rescue (activation) |
| --- | --- | --- |
| COc1cc2ccccc2cc1-c1nnc(COc2ccccc2)o1 | inactive |  |
| C[C@@]12CCC=C[C@H]1[C@H](c1ccccc1Br)N(Cc1ccccc1)C2=O | active: 35.5 µM |  |
| COC(=O)C(=O)/C=C(\O)c1c(C)cc(C)cc1C | inconclusive [activator, single point] |  |
| CCCCN(C)c1c(C)nc2ccc(C(=O)NCCOc3ccc(OC)cc3)cn12 | inactive |  |
| O=C(c1ccc(COc2ccccc2[N+](=O)[O-])o1)N1CCCCCC1 | inconclusive [activator, partial curve] |  |
| Cc1ccc(C(=O)Nc2cccc(S(=O)(=O)N(C)c3ccccc3)c2)o1 | inconclusive [activator, single point] |  |
| O=C(NCCSc1ccc(Br)cc1)c1ccccc1 | inconclusive [activator, partial curve, poor fit] |  |
| O=C(Nc1ccccc1)C(Cc1cccs1)c1nn[nH]n1 (stereo not drawn) | inconclusive [activator, single point] |  |
| Cc1cc2occ(CC(=O)NC3=NCCS3)c2cc1C(C)C | inconclusive [activator, single point] |  |
| COc1ccc(C2C=C(c3ccc(Cl)c(Cl)c3)Nc3ncnn32)cc1 (stereo not drawn) | inconclusive [activator, single point] |  |
| COC(=O)c1sccc1S(=O)(=O)N(CC(=O)NCc1ccc(C)cc1)c1ccc(C)cc1 | inactive |  |
| Cc1cc(C)c2nc(N3CCCN(C(=O)c4cnccn4)CC3)c(C#N)cc2c1 | inconclusive [activator, single point] |  |
| COc1cc(OC)c(C2CC(=O)N3CN(c4ccccc4)CSC3=C2C#N)cc1OC (stereo not drawn) | inactive |  |
| CCN(c1ccccc1)S(=O)(=O)c1ccc(C(=O)Nc2nnc(C3CC3)o2)cc1 | inconclusive [activator, full curve] |  |
| O=C(CSc1nnc(-c2ccc(F)cc2)o1)N1CCCc2ccccc21 | active: 20 µM |  |
| O=C(Nc1ccc2c(c1)OCCO2)c1cc(F)c(F)cc1Cl | inconclusive [activator, partial curve] |  |
| COc1ccc(C(O)c2nc(-c3ccc(F)cc3OC)cs2)cc1 (stereo not drawn) | active: 22.4 µM |  |
| CCC(C)Nc1ncnc2c1cnn2-c1ccc(F)cc1 (stereo not drawn) | inconclusive [activator, partial curve, poor fit] |  |
| O=C(OCc1c(Cl)nc2sccn12)c1cc2c(s1)CCCC2 | inconclusive [activator, partial curve] |  |
| COc1ccc(C(C)NC(=O)CC23CC4CC(CC(C4)C2)C3)cc1 (stereo not drawn) | inconclusive [activator, partial curve] |  |
| Cc1cc(-n2c(C)nc3ccccc3c2=O)ccc1NC(=O)C(F)(F)F | inactive |  |
| Fc1ccc(C2=CC(c3ccc(F)cc3)n3c(nc4ccccc43)N2)cc1 (stereo not drawn) | active: 22.4 µM |  |
| COc1ccc(NC(=O)CCCn2nc(C)c3sc4ccccc4c3c2=O)cc1 | inactive |  |
| Cc1ccc(N2CCN(S(=O)(=O)N(C)C)CC2)c(C)c1 |  | inconclusive: 14.4% [activator] |
| COc1ccc(-c2[nH]c(-c3ccccc3)nc2SCC(=O)Nc2nccs2)cc1 | inconclusive [activator, single point] |  |

| SMILES | Potency | growth rescue (activation) |
| --- | --- | --- |
| O=C(c1ccc2ccccc2c1)N1CCN(c2ccc([N+](=O)[O-])c(N3CCOCC3)c2)CC1 | inconclusive [activator, single point] |  |
| O=C(C1CCCO1)N1N=C(c2ccc(Br)cc2)CC1c1ccco1 (stereo not drawn) | inconclusive [activator, full curve] |  |
| Cc1ccnc(SC2CC(=O)N(c3ccc(C(C)C)cc3)C2=O)n1 (stereo not drawn) | inconclusive [activator, partial curve, poor fit] |  |
| Clc1ccc(CSc2ncnc3c2ncn3C2CCCCO2)cc1 (stereo not drawn) | inconclusive [activator, single point] |  |
| C/C(=C\C(=S)Nc1ccccc1)Nc1ccc2ccccc2c1 | active: 12.6 µM |  |
| COc1cccc(C2CC(=O)Nc3c2c(=O)[nH]c2nc4ccccc4n32)c1 (stereo not drawn) | inactive |  |
| COc1cccc(Nc2nc(N)c([N+](=O)[O-])c(NCc3ccccc3)n2)c1 | active: 25.1 µM |  |
| CCS(=O)(=O)CCn1c([N+](=O)[O-])cnc1C | inconclusive [activator, partial curve] |  |
| C=CCN1C(=O)/C(=C/c2ccc(-c3ccc(F)cc3)o2)SC1=S | inactive |  |
| O=C(Nc1nc(-c2ccccn2)cs1)c1ccc([N+](=O)[O-])o1 | inconclusive [activator, single point] |  |
| Cc1ccc2ncc(C(=O)Nc3ccc(OC(F)(F)F)cc3)c(=O)n2c1 | inactive |  |
| Cc1nn(C(=O)CNS(=O)(=O)c2ccccc2)c(C)c1Sc1ccc(Cl)cc1 | active: 15.8 µM |  |
| Cc1ccc(/C=C2\SC(=S)N(c3c(C)n(C)n(-c4ccccc4)c3=O)C2=O)cc1 | inconclusive [activator, single point] |  |
| O=C(Nc1ccccc1)N1CCCN(c2ccc(C(F)(F)F)cc2[N+](=O)[O-])CC1 | active: 17.8 µM |  |
| C[C@@H](C(=O)NCC1CCCO1)N1C(=O)N2CCc3c([nH]c4ccccc34)[C@@]2(C)C1=O (stereo partly drawn) | inactive |  |
| CCOC(=O)C1=CCN(S(=O)(=O)c2ccccc2F)C1c1cccc(Cl)c1 (stereo not drawn) | inconclusive [activator, partial curve] |  |
| OCc1ccccc1SSc1ccccc1CO | inconclusive [activator, partial curve] |  |
| Cn1nccc1-c1coc2c(C(=O)NCC3CCOCC3)cccc12 | inactive |  |
| NC(=O)c1ccc(NC(=O)COC(=O)C2(c3ccccc3F)CCCC2)cc1 | inactive |  |
| CN(CC(=O)Nc1ccccc1)CC(=O)Nc1ccccc1Cl | inactive |  |
| Cc1cc(C(=O)OCC(=O)NC2CCCCC2C)c2ccccc2n1 (stereo not drawn) | inconclusive [activator, partial curve] |  |
| [O-][n+]1c(/C=C/c2ccccc2)ccc2ccccc21 | inconclusive [activator, partial curve, poor fit] |  |
| Cc1ccc(-c2cc(C(=O)NCc3ccccc3Cl)c3ccccc3n2)cc1C | inconclusive [activator, partial curve] |  |
